PubChem BioAssay AID602332 (National Center for Advancing Translational Sciences (NCATS), 2012)
Among all 420,000 compounds or so, about 75 (0.02%) were called active. Inconclusive results, whose numbers are uncertain, are shown with a selection of clear calls. Calls come from the whole dose curve; as a rule, active = well fitted activation curve with a large enough effect; inconclusive = small, poorly fitted or top-dose-only effect; inactive = no such curve, though single readings can be large or run the other way. Where the call is inconclusive, the potency comes from a doubtful curve fit.

Assay: qHTS for Inducers of the Endoplasmic Reticulum Stress Response (ERSR) in Human Glioma: qHTS; note: nearly all actives have a fitted effect of over 35% in size; for activation: % of control where 0% means no effect
Conditions: U87-MG GRP78 promoter luciferase reporter, 16 h; activation: active compounds read high
How it was run: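 ERSR induction read as luciferase luminescence (Bright-Glo, 10 min at room temperature) in stably transfected human U87-MG glioma cells exposed to compounds for 16 h, using GRP78 as sensor.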
Potency is the fitted concentration of half-maximal effect; tags give direction and shape of the fitted curve.

Compound	Potency	activation
O=C(O)c1ccc(N2C(=O)CC(SC(=NCc3ccc4c(c3)OCO4)Nc3ccc(F)cc3)C2=O)cc1 (stereo not given)	inconclusive: 44.7 µM [activator, partial curve, poor fit]	–
CN1CCC(OC2c3ccccc3CCc3ccccc32)CC1	–	inactive: -4.08%
CCOc1ccccc1C(=O)NCCC(=O)O	inconclusive: 50.1 µM [activator, single point]	–
Cc1ccc(C)c(OCCC(=O)OCC(=O)N2CCN(S(=O)(=O)c3ccc(Cl)cc3)CC2)c1	–	inactive: -0.768%
CC(C)Cn1c(N2CCN(C(=O)c3cccs3)CC2)nc2ccccc21	–	inactive: -6.24%
C/C(=C\c1ccc(C(=O)O)cc1)c1ccc2c(c1)C(C)(C)CCC2(C)C	inconclusive: 52.1 µM [activator, partial curve, poor fit]	–
C=C(C)C(=O)Nc1cccc(C2=NOC3(C2)C[C@H](C(N)=O)N(C(=O)CC)C3)c1 (stereo not given in full)	–	inactive: -2.81%
COc1cccc(C(=O)Oc2ccccc2/C=C\C(=O)c2cc3ccccc3o2)c1	inconclusive: 28.2 µM [activator, partial curve, poor fit]	–
COc1ccc(Nc2sc(C(=O)c3ccccc3)c(N)c2C(=O)Nc2cc(C)ccc2C)c(OC)c1	inconclusive: 11.2 µM [activator, full curve, poor fit]	–
O=c1c(Cl)c(N2CCC3(CC2)OCCO3)cnn1C12CC3CC(CC(C3)C1)C2	inconclusive: 50.1 µM [activator, single point]	–
COc1ccc(CCn2c(=N)c(C(=O)NCc3ccco3)cc3c(=O)n4ccccc4nc32)cc1OC	–	inactive: -2.46%
CCc1cccc(CC)c1NC(=S)NCCc1ccc(O)c(O)c1	inconclusive: 44.7 µM [activator, partial curve, poor fit]	–
COc1cc(OC)cc(C(=O)OCC(=O)NCc2ccco2)c1	inconclusive: 12.6 µM [activator, single point]	–
O=C(/C=C/c1ccccc1)CC(O)(c1ccccc1)C(F)(F)C(F)F (stereo not given)	active: 11.2 µM	–
Nc1nc[nH]c(=O)c1N=Cc1ccccc1	inconclusive: 63.1 µM [activator, single point]	–
CN1CCCN(C2C3CC4CC(C3)CC2C4)CC1 (stereo not given)	inconclusive: 15.8 µM [activator, full curve, poor fit]	–
CC(CC(=O)N1CCN(c2ccccc2)CC1)S(=O)(=O)c1ccc2c(c1)NC(=O)CO2 (stereo not given)	–	inactive: -4.52%
CC(=O)Nc1ccc(Sc2ncccc2C(=O)Nc2ccc(F)cc2)cn1	inconclusive: 11.2 µM [activator, single point]	–
Cc1ccc(C(=O)CSc2nnc(-c3ccco3)n2Cc2ccccc2)cc1	inconclusive: 44.7 µM [activator, partial curve, poor fit]	–
CC1=C(C(=O)N(C(C)C)C(C)C)CC(CC(=O)NCCc2ccccn2)C(=O)N1Cc1ccc(C(C)(C)C)cc1 (stereo not given)	inconclusive: 12.6 µM [activator, single point]	–

Compound	Potency	activation
COCCNC(=O)c1cc(-c2cccs2)on1	inconclusive: 10 µM [activator, partial curve, poor fit]	–
COc1cc(OC)cc(C(=O)Nc2ccc(C(=O)c3ccncc3)cc2)c1	–	inactive: 0.69%
O=C(Cc1ccc(Cl)cc1)Nc1cccc(C(=O)Nc2ccccc2C(=O)O)c1	inconclusive: 44.7 µM [activator, partial curve, poor fit]	–
O=C(Nc1nc2cc3c(cc2s1)OCCO3)c1ccc([N+](=O)[O-])o1	inconclusive: 2.24 µM [activator, full curve, poor fit]	–
COc1ccc(C(=O)N(Cc2ccc(N(C)C)cc2)CC2CCCO2)cc1 (stereo not given)	inconclusive: 28.2 µM [activator, single point]	–
Oc1ccc(/C=N/Nc2ncnc3c2ncn3Cc2ccccc2)cc1O	inconclusive: 10 µM [activator, full curve, poor fit]	–
Cc1ccnc(NC(=O)CCCOc2cc(=O)n(C)c3ccccc23)c1	inconclusive: 4.47 µM [activator, single point]	–
O=C(Nc1ccccc1O)c1ccc(Cl)cc1	inconclusive: 10 µM [activator, full curve, poor fit]	–
COc1ccc(N=c2nc(-c3ccccc3)n(-c3ccc(C)cc3)s2)cc1	inconclusive: 28.2 µM [activator, single point]	–
CCOc1cc(C(=O)Nc2ccccc2N2CCN(S(C)(=O)=O)CC2)cc(OCC)c1OCC	–	inactive: -1.62%
O=C(/C=C/c1ccc(Cl)c([N+](=O)[O-])c1)Nc1cccnc1	inconclusive: 14.1 µM [activator, full curve, poor fit]	–
CC(C)c1ccc(Nc2nc3ccc(C(=O)c4ccccc4)cc3n3cnnc23)cc1	inconclusive: 4.47 µM [activator, full curve, poor fit]	–
O=C(O)c1cccc(NC(=O)c2cccc(S(=O)(=O)Nc3cccc(C(=O)O)c3)c2)c1	inconclusive: 17.8 µM [activator, single point]	–
O=C(NCCC1=CCCCC1)Nc1ccc2nsnc2c1	inconclusive: 10 µM [activator, partial curve, poor fit]	–
COc1ccccc1-c1cc(C(F)(F)F)nc(S(=O)(=O)CCCC(=O)O)n1	inconclusive: 28.2 µM [activator, single point]	–
CC(/C=N/NC(=O)c1nnn(-c2nonc2N)c1C(C)C)=C\c1ccccc1	inconclusive: 10 µM [activator, single point]	–
Cc1ccc(C2NC(=S)N3C(c4ccc(C)cc4)NC(=S)N23)cc1 (stereo not given)	–	inactive: 2.09%
CCN(CC)CCC(=O)N1c2ccccc2Sc2ccc(NC(=O)OC)cc21	inconclusive: 50.1 µM [activator, single point]	–
O=Cc1cccn1Cc1ccc(Cl)cc1Cl	–	inactive: 1.74%
Cn1nc(-c2ccc(Cl)cc2)c2cc(C(=O)NCCCN3CCCC3)sc21	inconclusive: 50.1 µM [activator, single point]	–
